In the supplement of paper PMC8728848:
The other results are listed elsewhere or left out.

Experiments:
Experiment in all cases: glycan array binding signal (z-score within array); higher = stronger binding
Conditions in all cases: glycan notation: IUPAC condensed, linker removed
[1] = molecular target: GlcNAc(a1-4)Gal(b1-4)GlcNAc
In short: (§1)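 Glycan array data were curated from 3228 arrays in the Consortium for Functional Glycomics database and kept only where the protein sequence was available. Glycan names were converted to IUPAC-condensed notation, and columns mapping to the same glycan were averaged. The binding signal is a within-array Z-score, averaged across arrays of the same protein sequence at different concentrations or buffers and across linkers. Negative Z-scores can be read as non-binding.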

[2] = molecular target: GlcNAc(a1-4)Gal(b1-4)GlcNAc(b1-3)Gal(b1-4)Glc
In short: as §1

[3] = molecular target: GlcNAc(a1-4)Gal(b1-4)GlcNAc(b1-3)Gal(b1-4)GlcNAc
In short: as §1

[4] = molecular target: GlcNAc(a1-4)Gal(b1-4)GlcNAc(b1-3)Gal(b1-4)GlcNAc(b1-3)Gal(b1-4)GlcNAc
In short: as §1

[5] = molecular target: GlcNAc(a1-4)Gal(b1-4)GlcNAc(b1-3)Gal(b1-4)[Fuc(a1-3)]GlcNAc(b1-3)Gal(b1-4)[Fuc(a1-3)]GlcNAc
In short: as §1

[6] = molecular target: GlcNAc(a1-6)Gal(b1-4)GlcNAc
In short: as §1

[7] = molecular target: GlcNAc(b1-2)Gal(b1-3)GalNAc
In short: as §1

[8] = molecular target: GlcNAc(b1-2)Man(a1-3)[GlcNAc(b1-2)Man(a1-6)]Man(b1-4)GlcNAc(b1-4)GlcNAc
In short: as §1

[9] = molecular target: GlcNAc(b1-2)Man(a1-3)[GlcNAc(b1-2)Man(a1-6)]Man(b1-4)GlcNAc(b1-4)[Fuc(a1-6)]GlcNAc
In short: as §1

[10] = molecular target: GlcNAc(b1-2)Man(a1-3)[GlcNAc(b1-4)][GlcNAc(b1-2)Man(a1-6)]Man(b1-4)GlcNAc(b1-4)GlcNAc
In short: as §1

[11] = molecular target: GlcNAc(b1-2)[GlcNAc(b1-4)]Man(a1-3)[GlcNAc(b1-2)Man(a1-6)]Man(b1-4)GlcNAc(b1-4)GlcNAc
In short: as §1

[12] = molecular target: GlcNAc(b1-2)[GlcNAc(b1-4)]Man(a1-3)[GlcNAc(b1-4)][GlcNAc(b1-2)Man(a1-6)]Man(b1-4)GlcNAc(b1-4)GlcNAc
In short: as §1

[13] = molecular target: GlcNAc(b1-2)[GlcNAc(b1-4)]Man(a1-3)[GlcNAc(b1-4)][GlcNAc(b1-2)[GlcNAc(b1-6)]Man(a1-6)]Man(b1-4)GlcNAc(b1-4)GlcNAc
In short: as §1

[14] = molecular target: GlcNAc(b1-2)[GlcNAc(b1-6)]Man(a1-6)[GlcNAc(b1-2)Man(a1-3)]Man(b1-4)GlcNAc(b1-4)GlcNAc
In short: as §1

[15] = molecular target: GlcNAc(b1-2)[GlcNAc(b1-6)]Man(a1-6)[GlcNAc(b1-2)Man(a1-3)][GlcNAc(b1-4)]Man(b1-4)GlcNAc(b1-4)GlcNAc
In short: as §1

GlcNAc(b1-3)Gal = molecular target: GlcNAc(b1-3)Gal
In short: as §1

[16] = molecular target: GlcNAc(b1-3)Gal(b1-3)GalNAc
In short: as §1

GlcNAc(b1-3)Gal(b1-4)Glc = molecular target: GlcNAc(b1-3)Gal(b1-4)Glc
In short: as §1

[17] = molecular target: GlcNAc(b1-3)Gal(b1-4)GlcNAc
In short: as §1

[18] = molecular target: GlcNAc(b1-3)Gal(b1-4)GlcNAc(b1-3)Gal(b1-4)GlcNAc
In short: as §1

GlcNAc(b1-3)GalNAc = molecular target: GlcNAc(b1-3)GalNAc
In short: as §1

GlcNAc(b1-3)Man = molecular target: GlcNAc(b1-3)Man
In short: as §1

[19] = molecular target: GlcNAc(b1-3)[GlcNAc(b1-4)][GlcNAc(b1-6)]GlcNAc
In short: as §1

[20] = molecular target: GlcNAc(b1-3)[GlcNAc(b1-6)]Gal(b1-4)GlcNAc
In short: as §1

[21] = molecular target: GlcNAc(b1-3)[GlcNAc(b1-6)]GalNAc
In short: as §1

[22] = molecular target: GlcNAc(b1-3)[GlcNAc(b1-6)]GlcNAc(b1-4)GlcNAc
In short: as §1

[23] = molecular target: GlcNAc(b1-4)Gal(b1-4)GlcNAc
In short: as §1

GlcNAc(b1-4)GlcNAc = molecular target: GlcNAc(b1-4)GlcNAc
In short: as §1

[24] = molecular target: GlcNAc(b1-4)GlcNAc(b1-4)GlcNAc
In short: as §1

[25] = molecular target: GlcNAc(b1-4)GlcNAc(b1-4)GlcNAc(b1-4)GlcNAc(b1-4)GlcNAc
In short: as §1

[26] = molecular target: GlcNAc(b1-4)GlcNAc(b1-4)GlcNAc(b1-4)GlcNAc(b1-4)GlcNAc(b1-4)GlcNAc
In short: as §1

[27] = molecular target: GlcNAc(b1-4)[GlcNAc(b1-6)]GalNAc
In short: as §1

[28] = molecular target: GlcNAc(b1-6)Gal(b1-4)GlcNAc
In short: as §1

GlcNAc(b1-6)GalNAc = molecular target: GlcNAc(b1-6)GalNAc
In short: as §1

GlcNAc3Prop(b1-4)GlcNAc = molecular target: GlcNAc3Prop(b1-4)GlcNAc
In short: as §1

[29] = molecular target: GlcNAc6S(b1-3)Gal(b1-4)GlcNAc
In short: as §1

Kdn(a2-3)Gal(b1-3)GalNAc = molecular target: Kdn(a2-3)Gal(b1-3)GalNAc
In short: as §1

B1: FedF (Escherichia coli), Q47212 (protein)
chain: MRLKYILIIPLLLISLSVFASTLQVDKSVSYDWINSSASSAQVTGTLLGTGKTNTTQMPALYTWQHQIYNVNFIPSSSGTLTCQAGTILVWKNGRETQYALECRVSIHHSSGSINESQWGQQSQVGFGTACGNKKCRFTGFEISLRIPPNAQTYPLSSGDLKGSFSLTNKEVNWSASIYVPAIAKSYRLDTSITLPDTVNLKQNQATPVYYTFSAPSVSNTITGIPNQNDMPSSNVKLTIGPIQSKTTALYVQPDATGSWYDLSKSITMTVVKSSMLNFKGINAKPGNVTLSVPIVFEIQ
**Q.** What does the source list for B1?
**A.** glycan array binding signal (z-score) [1]: -0.066; glycan array binding signal (z-score) [2]: -0.16; glycan array binding signal (z-score) [3]: 0.918; glycan array binding signal (z-score) [4]: -0.191; glycan array binding signal (z-score) [5]: 0.479; glycan array binding signal (z-score) [6]: -0.46; glycan array binding signal (z-score) [7]: -0.017; glycan array binding signal (z-score) [8]: -0.02; glycan array binding signal (z-score) [9]: 1.99; glycan array binding signal (z-score) [10]: -0.135; glycan array binding signal (z-score) [11]: -0.189; glycan array binding signal (z-score) [12]: -0.171; glycan array binding signal (z-score) [13]: -0.182; glycan array binding signal (z-score) [14]: -0.184; glycan array binding signal (z-score) [15]: -0.132; glycan array binding signal (z-score) (GlcNAc(b1-3)Gal): -0.29; glycan array binding signal (z-score) [16]: -0.213; glycan array binding signal (z-score) (GlcNAc(b1-3)Gal(b1-4)Glc): -0.285; glycan array binding signal (z-score) [17]: -0.179; glycan array binding signal (z-score) [18]: -0.337; glycan array binding signal (z-score) (GlcNAc(b1-3)GalNAc): -0.119; glycan array binding signal (z-score) (GlcNAc(b1-3)Man): -0.107; glycan array binding signal (z-score) [19]: -0.183; glycan array binding signal (z-score) [20]: -0.249; glycan array binding signal (z-score) [21]: -0.248; glycan array binding signal (z-score) [22]: -0.224; glycan array binding signal (z-score) [23]: -0.168; glycan array binding signal (z-score) (GlcNAc(b1-4)GlcNAc): -0.187; glycan array binding signal (z-score) [24]: 0.222; glycan array binding signal (z-score) [25]: -0.269; glycan array binding signal (z-score) [26]: -0.156; glycan array binding signal (z-score) [27]: -0.491; glycan array binding signal (z-score) [28]: -0.396; glycan array binding signal (z-score) (GlcNAc(b1-6)GalNAc): -0.288; glycan array binding signal (z-score) (GlcNAc3Prop(b1-4)GlcNAc): 13.7; glycan array binding signal (z-score) [29]: -0.117; glycan array binding signal (z-score) (Kdn(a2-3)Gal(b1-3)GalNAc): -0.089
